Recombinant human monoclonal antibodies (heavy:light variable regions). ELISA EC50 on the named antigen, from 10 µg/ml down; IC50 / IC90 against spike pseudovirus on 293T-ACE2 cells, 48 h; lower = stronger. Calls: IC50 above 1,000 ng/ml = non-neutralizing; EC50 above 1,000 ng/ml = non-binder. The source prints 1000 for neutralization that was not reached; it is given as >1000 ng/ml. Only binders of the Wuhan-Hu-1 domain have neutralization values.
B1: B1018 (protein)
chain 1: QVQLVQSGAEVKKPGASVKVSCKASGYTFNGQYMHWVRQAPGQGLEWLGWIDPNSGGTNFAQRFRGRVTMTWDTSISTAYMDLSRLRSDDTAVYYCATDTGTSWSEAEYLDYWGQGTLVTVSS
chain 2: DIQMTQSPSSLSASVGDRVTITCRASQSISSYLNWYQQKPGKAPNLLIYTTSSLQSGVPSRFSGSGSGTDFTFTISSLRPEDFATYYCQQSYSTPPITFGPGTRLEIK
B2: B1021 (protein)
chain 1: EVQLVQSGAEVKKPGESLKISCKGSGYSFISNWIGWVRQMPGKGLEWMGIIYPSDSDTIYSPSFQGQVTISADKSISTAYLHWSSLKASDTAIYYCARRESGSYSGYFDLWGRGTLVTVSS
chain 2: QSVLTQPPSASGTPGQRVTISCSGSSSNIGGTPVSWYQQLPGTAPKLVIYNNNQRPSGVPARFSGSKSGTSASLAISGLQSEDEADYYCAAWDDSLNGVFGGGTKLTVL
B3: B1013 (protein)
chain 1: EVQLVESGGGLVQPGRSLRLSCAASGFTFDDYAIHWVRQPPGKGLEWVSGTSWNSGTIGYADSVKGRFIISRDNAKNSLYLQMNSLRAEDTALYYCAKDIRRSGYCSGGICYTEYYAMDVWGQGTTVTVSS
chain 2: QSALTQPASVSGSPGQSITISCTGTSSDVGGYNYVSWYQQLPGKAPKLMIYDVSTRPSGVSNRFSGSKSGNTASLTVSGLQAEDEANYYCTSYTSDSIVVFGGGTKLTVL
B4: B1014 (protein)
chain 1: EVQLVESGGGLVQPGRSLRLSCAASGFTFDDYAIHWVRQPPGKGLEWVSGVSWNSGTIGYADSVKGRFIITRDNAKNSLYLQMNSLRAEDTALYYCAKDIRRSGYCSGGLCNTEYYAMDVWGQGTTVTVSS
chain 2: QSALTQPASVSGSPGQSITVSCTGTTSDVGGYNYVSWYQQHPGKAPELMIYDVNKRPSGISNRFSGSKSGNTASLTISGLQAEDEADYYCTSYASSSIVVFGGGTKLTVL
B5: B1022 (protein)
chain 1: QVQLVESGGGVVQPGRSLRLSCATSGFIFSSYGMHWVRQAPGKGLEWVADISYHGSNKYYADSVKGRFNISRDNSNKTLYLQMNSLRPEDTALYFCAKDLGQGILHFVQWSISRHGLDVWGQGTTVTVSS
chain 2: QSALTQPPSASGSPGQSVTISCTGTSSDVGGYNYVSWYQQHPGKAPKLLIYEVTKRPSGVPDRFSGSKSGNTASLTISGLQAEDEADYYCSSCAVSVIFGGGTKLTVL
B6: B1023 (protein)
chain 1: QVQLQQWGAGLLKPSETLSLTCAVSGGSFSGYYWNWIRQPPGKGLEWIGEINHSGSTNYNPSLKSRVTISLDTSKNHFALKLTSVTAADTAVYYCATAEYNSSWYDAFDLWGQGTMVTVSS
chain 2: QSVLTQPPSASGTPGQRVTISCSGSSSNIGSNPVNWYQQVPGRAPKLLIYSRNQRPSGVPDRFSGSWSGTSASLAISGLQSEDEAEYYCAAWGGNVNGWVFGGGTKLTVL
B7: B1011 (protein)
chain 1: QVQLVQSGAEVKKPGASVKVSCKASGYTFISYYTHWVRQAPGQGLEWMGIINPSDGYTSYAQKFQGRVTMTRDTSASTVYMELSSLRSEDTAVYYCARDSSIAARVVAWGQGTLVTVSS
chain 2: DIQMTQSPSSLSASVGDRVTITCQASQDIYNYLNWYQQKPGKAPKLLIFDAINLETGVPSRFSGSGSGTDFTFTISSLQPEDIATYYCQQHDNLPYSFGQGTKLEIK
B8: B1012 (protein)
chain 1: QVQLVQSGAEVKKPGASVKVSCKASGYTFISYYTHWVRQAPGQGLEWMGIINPSDGYTSYAQKFQGRVTMTRDTSASTVYMELSSLRSEDTAVYYCARDSSIAARVVAWGQGTLVTVSS
chain 2: DIQMTQSPSSLSASVGDRVTITCQASQDIGNYLNWYQQKPGKAPKLLIFDASNLEAGVPSRFSASGSGTDFTFAISSLQPEDIAAYYCQQHDDLPYSFGQGTTLEIK
B9: B1016 (protein)
chain 1: EVQLVESGGGLVQPGRSLRLSCAASGFTFDDYAMHWVRQAPGKGLEWVSGISWNSGTIGYVDSVKGRFIISRDNAKNSLYLQMYSLRTEDTALYYCVKDVYMGKINLYGHEDYGMDVWGQGTTVTVSS
chain 2: QSVLTQPPSVSGAPGQRVTISCTGSSSNIGASYDVHWYQQLPGTAPKLLIYGKGNRPSGVPDRFSGSKSGTSASLAITGIQAEDEADYYCQSFDSSLSGVVFGGGTKLTVL
B10: B1015 (protein)
chain 1: QVQLVESGGGVVQPGRSLRLSCTVSGFTFRHYGMHWVRQAPGKGLEWVAVILYDGSDKQYADSVKGRFTIARDNSKNTLYLQMNSLRAEDTAVYYCVKRRGSYCGGDCYSGEFDYWGQGTLVTVSS
chain 2: DIQMTQSPSSLSASVGDRVTITCQASQDISTYLNWFQQKPGKAPNLLISDASNLETGVPSRFSGSGSGTDFTFTISSLQPEDVATYYCQQYHNLPTFAGGTKVELK
B11: B1024 (protein)
chain 1: QVQLVQSGAEVKKSGSSVKVSCKASGGIFSRLAISWVRQAPGQGLEWMGGIIPVFATTNYAQKFQGRVTITADESASTVYMELSSLRSEDTAVYFCARALYYYDRSGRTRMEDYFDYWGQGTLVTVSS
chain 2: QSVLTQPPSVSGAPGQRVTISCTGSSSNIGAPSDVHWYQQLPGTAPKLLIYGNSNRPSGVPDRFSGSKSGTSASLAITGLQAEDEADYYCQSYDSSLSAPYVFGTGTKVTVL
B12: B1017 (protein)
chain 1: QVQLVQSGSEVKKPGSSVKVSCKASGGTFSSYSVTWVRQAPGHGLEWMGGILPILNLPNYAEKFQGRLTITADRSANIAYMELSSLRPDDTAVYYCARDRVNSSGSPYWFDPWGQGTLVTVSS
chain 2: QSVLTQPSSVSGAPGQRVTISCTGSNSNIGAGYDVHWYQQVPGIAPKLLIYANNNRPSGVPDRFSGSKSDTSASLAITGLQAEDEADYYCQSYDSSLSGSVFGGGTKLTVL
B13: B2097 (protein)
chain 1: EVQLVESGGGLVQPGGSLRLSCAASGFTFNMYWMTWVRQAPGKGLEWVANIEPDGSDKDYGESVKGRFTISRDNAKNSLYLQMNSLRAEDSAVYYCATEAMGVGPTSGGFDSWGQGTLVTVSS
chain 2: DIQLTQSPSSLSASVGDRVTITCRASEGISSYLNWYQQKSGKAPKLLMYAASSLQSGVPSRFSGSGSGTDFTLTISSLQPEDFATYYCQQSYTTPRTFGQGTKVEIK
B14: B1019 (protein)
chain 1: EVQLVESGGRVVRPGGSLRLSCAASGFTFGDYGMSWVRQVPGKGLEWVSNINWNGGSITYADSVKGRFTVARDNTKNSLHLQMTSLRVEDTAFYYCARMSCGGDCYSLVGPTGDTWFDPWGQGTLVTVSS
chain 2: NFMLTQPHSVSESPGKTVTISCTGSSGSIASNYVHWYQQRPGSAPITVIYEDKQRPSGVPDRFSGSVDGSSNSASLTISGLKTEDEADYYCQSYDSSSHWVFGGGTKLTVL

target: SARS-CoV-2 Wuhan-Hu-1 spike pseudovirus; assay: pseudovirus neutralization IC50; higher = weaker neutralization
Method: (§1)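 Single-round luciferase reporter pseudovirus mixed with antibody dilutions and put on 293T-ACE2 cells for 48 h; signal relative to no-antibody wells, four-parameter fit.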

Row | Binder | pseudovirus neutralization IC50 [µg/mL]
1 | B1 | 0.0356
2 | B2 | 0.383
3 | B3 | 0.0216
4 | B4 | 0.0298
5 | B5 | 0.00934
6 | B6 | 0.0184
7 | B7 | 0.0081
8 | B8 | 0.00552
9 | B9 | 0.00953
10 | B10 | > 1
11 | B11 | 0.0755
12 | B12 | 0.0536
13 | B13 | > 1
14 | B14 | 0.0274

target: SARS-CoV-2 Wuhan-Hu-1 spike pseudovirus; assay: pseudovirus neutralization IC90; higher = weaker neutralization
Method: as §1

Row | Binder | pseudovirus neutralization IC90 [µg/mL]
15 | B1 | 0.779
16 | B2 | > 1
17 | B3 | 0.285
18 | B4 | 0.493
19 | B5 | 0.106
20 | B6 | 0.0725
21 | B7 | 0.0492
22 | B8 | 0.0529
23 | B9 | 0.424
24 | B10 | > 1
25 | B11 | 0.372
26 | B12 | > 1
27 | B13 | > 1
28 | B14 | 0.238

target: SARS-CoV-2 Delta (B.1.617.2) spike RBD; assay: ELISA binding EC50; higher = weaker binding; ELISA of recombinant human antibody on coated antigen, from 10 µg/ml in fourfold dilutions; four-parameter fit.

Row | Binder | ELISA binding EC50 [µg/mL]
29 | B1 | 0.183
30 | B2 | 0.0487
31 | B3 | 0.0428
32 | B4 | 0.0497
33 | B5 | > 1
34 | B6 | > 1
35 | B7 | 0.0763
36 | B8 | 0.207
37 | B9 | 0.507
38 | B10 | 0.00555
39 | B11 | 0.00998
40 | B12 | 0.237
41 | B13 | 0.00507
42 | B14 | 0.00642

target: SARS-CoV-2 Omicron BA.1 spike protein; assay: as above

Row | Binder | ELISA binding EC50 [µg/mL]
43 | B1 | 0.0271
44 | B2 | 0.00467
45 | B3 | 0.0309
46 | B4 | 0.0351
47 | B5 | 0.0181
48 | B6 | 0.0442
49 | B7 | 0.00058
50 | B8 | 0.00476
51 | B9 | 0.0106
52 | B10 | 0.00189
53 | B11 | 0.0178
54 | B12 | 0.0465
55 | B13 | 0.0119
56 | B14 | 0.00827

target: SARS-CoV-2 Wuhan-Hu-1 spike receptor-binding domain; assay: as above

Row | Binder | ELISA binding EC50 [µg/mL]
57 | B1 | 0.00739
58 | B2 | 0.00317
59 | B3 | 0.00464
60 | B4 | 0.00296
61 | B5 | 0.00536
62 | B6 | 0.00322
63 | B7 | 0.00293
64 | B8 | 0.00399
65 | B9 | 0.0028
66 | B10 | 0.00103
67 | B11 | 0.002
68 | B12 | 0.00381
69 | B13 | 0.00327
70 | B14 | 0.00338

Reference: the supplement of paper PMC9513381
